Experimental data from PubChem BioAssay (NCI).
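A five-concentration, 48-hour dose response in 96-well plates underlies each endpoint, interpolated linearly between surrounding concentrations. GI50 is the concentration that inhibits growth by half. Definition used: TGI = concentration required for complete inhibition of growth.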

Test system: NCI-H322M lung
Experiment: DTP human tumour cell line panel, 48 h

Question: How did the GI50 turn out when `Cc1cc(S(=O)(=O)/N=C(\N)Nc2cccc(O)c2)c(SCc2ccccc2)cc1Cl` was run?
Answer: 19.5 µM

Question: What about the TGI of the same molecule?
Answer: 39.9 µM

Question: Which results are given for `Clc1ccc(-c2cc(-c3ccccc3)nc(N3CCN(CCCNc4ccnc5cc(Cl)ccc45)CC3)n2)cc1`?
Answer: GI50: 1.54 µM; TGI: 2.9 µM

Question: What does the source list for `COc1ccccc1-n1cnc(N)c1C(=O)c1cc(OC)c(OC)c(OC)c1`?
Answer: GI50: 9.58 µM; TGI: > 100 µM

Question: Which TGI does the source give for `C/C(NNC(=O)c1ccccc1O)=C1\C=Nc2ccccc2S1` here?
Answer: > 100 µM

Question: With `CC(=O)Nc1ccc(NC(=O)CC(=O)Nc2ccc(NC(C)=O)cc2)cc1` as the molecule, how does the TGI read?
Answer: > 100 µM

Question: For `O=C(NC1CCN(Cc2ccccc2)CC1)c1cc(-c2cccnc2)nc2ccc(Cl)cc12`, which GI50 is on record?
Answer: 20.5 µM

Question: What about the TGI of the same molecule?
Answer: > 100 µM
